Experimental data published in paper PMC4336329 (PLoS ONE, 2015).
Out of some 310,000 compounds screened, about 14,000 (4.5%) showed an effect of 50% or more. The effect is printed as a negative number. Some of the results follow.

Each molecule was assayed against human ether-à-go-go-related gene (hERG) potassium channel (human, UniProt Q12809) (assay: primary screen, population patch clamp on CHO cells stably expressing hERG).
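Further: peak tail current of the secondary pulse compared with the same well before compound.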

Chain of human ether-à-go-go-related gene (hERG) potassium channel (Q12809 whole entry, looked up): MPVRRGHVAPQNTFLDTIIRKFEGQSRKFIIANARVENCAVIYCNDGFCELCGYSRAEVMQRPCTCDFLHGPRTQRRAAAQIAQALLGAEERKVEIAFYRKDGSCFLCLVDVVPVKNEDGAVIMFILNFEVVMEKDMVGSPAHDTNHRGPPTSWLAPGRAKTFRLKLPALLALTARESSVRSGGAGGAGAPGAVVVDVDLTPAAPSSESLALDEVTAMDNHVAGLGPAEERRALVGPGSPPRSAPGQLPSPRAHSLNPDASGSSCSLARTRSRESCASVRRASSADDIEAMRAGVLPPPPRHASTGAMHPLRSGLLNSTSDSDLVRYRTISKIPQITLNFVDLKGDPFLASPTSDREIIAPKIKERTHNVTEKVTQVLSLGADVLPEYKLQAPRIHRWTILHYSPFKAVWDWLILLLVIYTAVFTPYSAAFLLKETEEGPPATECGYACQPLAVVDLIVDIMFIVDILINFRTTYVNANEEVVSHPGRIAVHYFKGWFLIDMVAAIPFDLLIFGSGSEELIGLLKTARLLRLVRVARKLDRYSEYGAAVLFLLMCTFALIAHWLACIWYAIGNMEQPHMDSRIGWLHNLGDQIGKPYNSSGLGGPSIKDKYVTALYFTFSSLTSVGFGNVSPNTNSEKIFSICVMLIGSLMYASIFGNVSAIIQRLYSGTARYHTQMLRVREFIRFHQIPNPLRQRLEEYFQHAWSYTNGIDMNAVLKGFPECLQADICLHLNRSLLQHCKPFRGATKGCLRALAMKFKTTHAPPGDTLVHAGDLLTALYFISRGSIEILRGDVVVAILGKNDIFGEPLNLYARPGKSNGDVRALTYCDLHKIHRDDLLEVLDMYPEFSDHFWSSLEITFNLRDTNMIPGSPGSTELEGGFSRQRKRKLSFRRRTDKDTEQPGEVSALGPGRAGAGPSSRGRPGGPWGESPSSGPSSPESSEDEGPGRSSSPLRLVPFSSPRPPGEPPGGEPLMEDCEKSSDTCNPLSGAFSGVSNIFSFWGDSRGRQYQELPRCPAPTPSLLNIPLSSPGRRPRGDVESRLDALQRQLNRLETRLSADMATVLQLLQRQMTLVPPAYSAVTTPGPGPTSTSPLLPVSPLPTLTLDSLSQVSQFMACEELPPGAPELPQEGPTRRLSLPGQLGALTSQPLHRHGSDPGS

SMILES	hERG current change (%, negative = inhibition) at 10uM [%]
COc1ccc(C(=O)C2CCCN(Cc3cnc(C)s3)C2)cc1OC (stereo not drawn)	-5.12
Fc1ccc(C2CC(c3ccc(F)cc3)n3ncnc3N2)cc1 (stereo not drawn)	-60
Cc1cccc(NC(=O)c2nc[nH]c2C(=O)N[C@@H](C)c2ccccc2)c1	10.8
CCn1nc(C(=O)N2CCN(Cc3nc4ccccc4s3)CC2)c2ccccc2c1=O	-68.9
CC1CN(S(=O)(=O)c2ccc(C(=O)N3c4ccccc4CC3C)cc2)CC(C)O1 (stereo not drawn)	3.21
Cc1ccc(N2CC(C(=O)OCC(=O)Nc3ccccc3F)CC2=O)cc1 (stereo not drawn)	-0.51
COc1ccc(CN2CCNC(=O)C2CC(=O)O)cc1OC (stereo not drawn)	20.6
Cc1ccc(-n2nc3cc(Cl)c(NC(=O)c4ccco4)cc3n2)cc1	3.69
CCCCCC1CC(CC(C)C(=O)Nc2nncs2)C(=O)O1 (stereo not drawn)	-44.1
O=P1(c2ccccc2)C=Cn2c1cc1c2CCCC1 (stereo not drawn)	-9.21
Nc1ccccc1C(=O)NNC(=O)C(=O)/C=C(\O)c1ccccc1	-6.64
CC(=O)Nc1ccc(S(=O)(=O)NCCNc2ccccc2[N+](=O)[O-])cc1	-25.6
Cc1ccc(-c2nc(C#N)c(NCCCn3ccnc3)o2)cc1	-21.9
Cc1ccc(C)c(SCC(=O)N(C)CC(=O)Nc2ccc(N3CCOCC3)cc2)c1	-5.12
CCS(=O)(=O)n1nc(-c2ccc(Cl)cc2)nc1SC	21.9
CCN1C(=O)C(CC(=O)Nc2ccc(F)cc2)N(Cc2cccs2)C1=S (stereo not drawn)	-48.9
CC(=O)c1cccc(NC(=S)Nc2cccc3ccccc23)c1	13.7
COC(=O)c1cc(Sc2c(Cl)cccc2Cl)ccn1	-36.5
c1ccc(-c2nc3cnccn3c2Nc2ccc3c(c2)OCCO3)cc1	4.22
CCOc1ccccc1C(=O)n1nc2nc(C)cc(C)c2c1N	-1.43
C[C@H]1CC[C@H]2C(=O)N3[C@H](c4cccc(N5CCCC5=O)c4)[C@@H](C)CC[C@H]3C(=O)N2[C@@H]1c1cccc(N2CCCC2=O)c1	-56.3
Cc1occc1C(=O)N1CCCC(N2CCN(c3cccc(C(F)(F)F)c3)CC2)C1 (stereo not drawn)	-38.9

SMILES	hERG current change (%, negative = inhibition) at 10uM [%]
CC(/C=C/c1ccccc1F)=N\NC(=O)C(C)C	-4.64
Cc1cc2c(c(=O)n1Cc1ccco1)C(c1ccccc1)C(C#N)=C(N)O2 (stereo not drawn)	-0.879
Cc1cc(CNC(=O)CCc2nnc(CCCCc3ccccc3)o2)nn1C	38.1
O=C1CSC(c2ccccc2)N1Cc1ccccc1 (stereo not drawn)	13.2
COc1ccc(C(=O)Nc2cc(C)c(NC(=O)c3ccccn3)cn2)cc1	1.13
CC1CCCC(C)N1C(=O)COC(=O)CCc1nc2ccccc2c(=O)[nH]1 (stereo not drawn)	-1.29
N#Cc1cc(-c2cccc(Cl)c2)c[nH]c1=O	12.8
COCCN(C(=O)CCC(=O)Nc1nccs1)C(C(=O)NC(C)(C)C)c1ccc(C)cc1 (stereo not drawn)	5.03
Cc1cccc(NC(=O)Nc2cnccn2)c1C	14.9
O=C(CCSCc1ccc(Cl)cc1)NCCc1ccccc1	-5.27
COc1ccc(S(=O)(=O)N(C)CC(=O)NCc2ccco2)cc1Cl	-1.3
CCOc1ccc(-c2c(C)n(-c3ccc(OCC)cc3)c3[n+]2CCCCC3)cc1.[O-][Cl+3]([O-])([O-])[O-]	-77.7
O=C(Nc1ccc(F)cc1F)c1cccnc1Oc1cccc(C(F)(F)F)c1	0.51
CCN(CC)CC(C)OC(=O)COc1ccc(OC)cc1.Cl (stereo not drawn)	13.1
CN(Cc1ccccc1)C(=O)CN1C(=O)c2ccc([N+](=O)[O-])cc2C1=O	-17.9
O=C(N/N=C/c1c[nH]c2ccccc12)c1ccn(Cc2ccc(Cl)cc2)n1	3.88
Cn1c(=O)c(C(=O)Nc2ncccc2O)c(O)c2ccccc21	11
Cc1cccc(C)c1Nc1nnc(SCc2cc([N+](=O)[O-])cc3c2OCOC3)s1	-21
Nc1c(N(CCO)C(=O)/C=C/c2ccco2)c(=O)[nH]c(=O)n1Cc1ccccc1	10.1
O=C1/C(=C/c2ccc(O)cc2)SC(=S)N1Cc1cccnc1	16.4
O=C(c1cccn2c(=O)c3ccccc3nc12)N1CCN(c2ccccn2)CC1	-53
O=C(NC1CCCCC1)C1CN(S(=O)(=O)c2ccccc2)CCN1S(=O)(=O)c1ccccc1 (stereo not drawn)	-39.1

SMILES	hERG current change (%, negative = inhibition) at 10uM [%]
CCSc1nnc(NC(=O)C2Cc3ccccc3CN2S(=O)(=O)CC)s1 (stereo not drawn)	-2.13
CCC(C)(NC=O)C(=O)Nc1c(C)cccc1C (stereo not drawn)	4.21
Cc1csc(NC(=O)c2ccc(S(=O)(=O)N3CCCC3)cc2)n1	-16.5
COc1ccc(-n2c(SCC(=O)O)nc3sc4c(c3c2=O)CCC4)cc1	18.9
CC(=O)Nc1ccc(N2C(C(C)=O)=NN(c3ccccc3)C2c2cccs2)cc1 (stereo not drawn)	18
Cc1ccccc1NC(=O)N1CCCC1C(=O)NCc1cccs1 (stereo not drawn)	2.01
COc1ccc(NC(=O)N2CCC3(CC2)OCCO3)cc1OC	5.72
COc1ccc(C(=O)NCCCN2CCCC2=O)cc1	3.54
Cc1scc(C(=O)N/N=C/c2ccc([N+](=O)[O-])o2)c1C	15.4
CC1=CC(C)(C)Nc2ccc(OC(=O)CCN3C(=O)c4ccccc4C3=O)cc21	0.14
CCNS(=O)(=O)c1ccc(NC(=O)Nc2cccc(OC)c2)cc1	8.01
COc1cc(C(=O)OC(C)CN2CCN(C)CC2)cc(OC)c1OC.Cl (stereo not drawn)	-6.51
Cc1ccc(F)c(CNC(=O)C2CCC(=O)N(CCCN3CCCC3=O)C2)c1F (stereo not drawn)	15
C=CCn1c(CCNC(=O)c2cccs2)nnc1SCC(=O)c1ccc(Cl)cc1	-38.5
N=c1c2c3c(sc2ncn1Cc1ccco1)CCCCC3	-62
COc1cccc(CN2CCN(C(=O)C3CCC(=O)N(C4CCCC4)C3)CC2)c1 (stereo not drawn)	3.17
N#CCC(=O)Nc1ccc(C(F)(F)F)cc1N1CCOCC1	-1.13
CCOC(=O)c1sc(NC(=O)C2CC(=O)N(c3ccccc3C)C2)nc1C (stereo not drawn)	-6.31
COc1ccc(CN(C(=O)CNC(=O)c2ccco2)C(C(=O)NCC2CCCO2)c2ccccc2)cc1 (stereo not drawn)	-6.44
Cc1cc2nc(N)sc2cc1[N+](=O)[O-]	-0.00632
CCc1ccccc1N1C(=O)[C@@H]2Cc3ccccc3CN2C1=O	5
Cc1ccc(S(=O)(=O)NCCCCCC(=O)Nc2c(C)n(C)n(-c3ccccc3)c2=O)cc1	55.7

SMILES	hERG current change (%, negative = inhibition) at 10uM [%]
CCOc1ccc(CN(C)CC(=O)NCc2ccc(F)cc2)cc1	-74
Cc1snc(S(=O)(=O)/C(C#N)=N\Nc2ccccc2)c1C#N	8.45
CC(C)(C)OC(=O)NCC1CCN(S(=O)(=O)Cc2ccccc2)CC1	13.8
COc1ccc(OC)c(NC2c3ccccc3C(=O)N2c2cccnc2)c1 (stereo not drawn)	-7.07
O=S(=O)(NC1CC(NS(=O)(=O)OCC(Cl)(Cl)Cl)C2CCCCC12)OCC(Cl)(Cl)Cl (stereo not drawn)	1.91
CCC(C)NC(=O)CNC(=S)N(Cc1ccccc1F)C1CCCCC1 (stereo not drawn)	24.9
Cn1cccc1Cc1nnc(SCC(=O)N2CCc3ccccc32)n1CCc1ccccc1	-11.3
Cc1ccc(CSc2nnc(Nc3ccc(C)cc3)s2)cc1	18
N#CCCN1CCN(S(=O)(=O)c2ccc3c(c2)OCCCO3)CC1.O=C(O)C(=O)O	13.6
Cc1nn(C(=O)c2nn(C)cc2Cl)c(C)c1Br	-6.27
Cn1nnnc1SCc1csc(Nc2ccccc2)n1	-1.01
CC(=O)C1=C(C)NC(SCC(=O)c2ccc(Cl)cc2)=C(C#N)C1c1ccco1 (stereo not drawn)	10.4
Cc1cccc(OCC(=O)NCCNC(=O)c2ccco2)c1	-19
COc1ccc(Br)cc1CN1CCN(C(=O)c2cccc(OC)c2OC)CC1.O=C(O)C(=O)O	0.939
O=C(NCC(=O)N(Cc1ccc(F)cc1)C(C(=O)NC1CCCC1)c1ccco1)c1ccco1 (stereo not drawn)	-20.3
COc1cccc(CNC(=O)C2CCN(S(=O)(=O)c3ccc(Br)s3)CC2)c1	-18.2
O=C(/C=C/c1cccc(F)c1)OCC(=O)N1CCCc2ccccc21	-27.6
CC(C#CCN1CCCCC1)OCCOCc1ccccc1.Cl (stereo not drawn)	6.25
CCn1c(CNC(=O)c2cccc(C)c2)nnc1SCC(=O)Nc1cccc(OC)c1	-27.6
Cc1ccc(C(=O)NCC(=O)NCC(=O)OCC(=O)c2ccc(Br)cc2)cc1	7.3
Cc1nnc(SCC(=O)NNC(=O)c2ccco2)s1	-21.4
